{"source": "PubChem BioAssay AID624417", "about": "(National Center for Advancing Translational Sciences (NCATS), 2012)", "note": "The whole screen tested about 410,000 compounds, of which about 6,400 (1.6%) were called active. The inconclusive results got no clear call from the source; some entries with a clear call stand among them for comparison. Calls follow the shape of the dose curve; as a rule, active = well fitted inhibition curve with a large enough effect; inconclusive = small, poorly fitted or top-dose-only effect; inactive = no such curve, though single readings can be large or run the other way. Potencies of inconclusive entries are left out as doubtful fits. Potency is read from the fitted curve at half-maximal effect; tags tell the direction and shape of the fitted curve.", "data": [{"target": "Glucagon-like peptide 1 receptor (Homo sapiens) (UniProt P43220)", "sequence (P43220 whole entry, looked up)": "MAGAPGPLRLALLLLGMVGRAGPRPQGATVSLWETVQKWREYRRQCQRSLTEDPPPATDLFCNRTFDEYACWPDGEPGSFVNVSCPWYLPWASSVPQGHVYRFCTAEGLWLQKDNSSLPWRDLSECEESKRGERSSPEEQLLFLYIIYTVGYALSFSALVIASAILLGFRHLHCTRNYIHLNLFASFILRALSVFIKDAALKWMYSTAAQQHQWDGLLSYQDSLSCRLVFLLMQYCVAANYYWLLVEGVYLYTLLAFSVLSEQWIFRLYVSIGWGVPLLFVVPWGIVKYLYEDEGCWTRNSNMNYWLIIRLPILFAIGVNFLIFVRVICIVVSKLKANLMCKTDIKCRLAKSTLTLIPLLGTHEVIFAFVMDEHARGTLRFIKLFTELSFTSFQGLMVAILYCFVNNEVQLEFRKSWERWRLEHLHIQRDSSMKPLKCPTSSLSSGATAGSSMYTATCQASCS", "test": "qHTS of GLP-1 Receptor Inverse Agonists (Inhibition Mode); also: nearly all actives have a fitted effect of over 55% in size", "details": "HEK293 GLP-1R CRE-luciferase, luminescence, 24 h, GLP-1R form is constitutively active; series mostly up to 38.3 µM", "how_it_was_run": "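HEK293 cells stably co-expressing a cAMP-responsive luciferase reporter and constitutively active GLP-1R were seeded, incubated 12 h, then exposed to compounds for 24 h at 37 C. Luminescence was read 12 min after detection reagent; inverse agonists lower signal.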", "values": [{"compound": "CC(C)(C)[C@@H]1COC(=O)[C@@H](Cc2ccc(F)cc2)C/C=C\\C[C@H](CC(=O)N(CCO)Cc2ccccc2)C(=O)N1", "Potency": "inconclusive [inhibitor, single point]"}, {"compound": "C/C(=N\\NC(=O)C(C)n1nc(C)c([N+](=O)[O-])c1C)c1ccccc1O", "note": "(stereo unspecified)", "Potency": "inconclusive [inhibitor, partial curve, poor fit]"}, {"compound": "CC(C)OCCCNC(=O)c1ccc(CN2CCc3ccccc3C2)cc1", "Potency": "inconclusive [inhibitor, partial curve, poor fit]"}, {"compound": "COc1ccc(CC(=O)O/N=C(\\N)c2ccc(C)cc2)cc1", "Potency": "inconclusive [inhibitor, partial curve, poor fit]"}, {"compound": "O=C(Nc1ccccc1N1CCOCC1)C1CCN(S(=O)(=O)c2cccc(C(F)(F)F)c2)CC1", "Potency": "inconclusive [inhibitor, single point]"}, {"compound": "COc1cccc(/C=N/n2c(C3CCCCC3)n[nH]c2=S)c1O", "Potency": "inactive"}, {"compound": "O=C1CC(c2ccccc2)(c2ccccc2)c2ccccc21", "Potency": "inconclusive [inhibitor, single point]"}, {"compound": "Cc1c(C#N)c(N)c(C(=O)c2ccccc2)n1Cc1ccccc1", "Potency": "inconclusive [inhibitor, partial curve, poor fit]"}, {"compound": "COC(=O)c1sccc1NC(=S)Nc1cc(C)cc(C)c1", "Potency": "inactive"}, {"compound": "O=S(=O)(N/N=C/c1ccc(Cl)cc1)c1ccc(Cc2ncc(C(F)(F)F)cc2Cl)s1", "Potency": "inconclusive [inhibitor, partial curve, poor fit]"}, {"compound": "Cc1ccc(CN2CC(N3CCN(CCO)CC3)CS2(=O)=O)cc1", "note": "(stereo unspecified)", "Potency": "inactive"}, {"compound": "CSc1ccc(CN(C)CC(=O)Nc2ccccc2Br)cc1", "Potency": "inconclusive [inhibitor, partial curve, poor fit]"}, {"compound": "COc1ccccc1-c1noc2c1C(=O)N(Cc1cn(-c3ccc(Cl)cc3)nn1)CC2", "Potency": "inconclusive [inhibitor, single point]"}, {"compound": "S=C(NCc1ccccc1)N1CCn2cccc2C1c1ccncc1", "note": "(stereo unspecified)", "Potency": "inactive"}, {"compound": "COc1cccc(N/C=C/C(=O)c2ccc(Cl)cc2)c1", "Potency": "inconclusive [inhibitor, single point]"}, {"compound": "O=S(=O)(c1ccccc1Cl)N1CCCC1c1nc(-c2ccc(Cl)cc2)no1", "note": "(stereo unspecified)", "Potency": "inconclusive [inhibitor, partial curve, poor fit]"}, {"compound": "Cc1ccc(-c2noc(N=O)c2NO)cc1", "Potency": "inconclusive [inhibitor, partial curve, poor fit]"}, {"compound": "Cc1cc(C)c(NC(=S)N(CCN2CCCCC2)Cc2ccco2)c(C)c1", "Potency": "inconclusive [inhibitor, single point]"}, {"compound": "O=C(Cc1cccc2ccccc12)NNC(=O)Nc1cccc(Cl)c1", "Potency": "inconclusive [inhibitor, partial curve, poor fit]"}, {"compound": "O=C(Cn1c(-c2cccs2)cc2cc(Cl)ccc21)N1CCCCC1", "Potency": "inconclusive [inhibitor, single point]"}, {"compound": "O=C(c1cnn(-c2ccc(F)cc2)c1-n1cccc1)N1CCN(c2cccc(Cl)c2)CC1", "Potency": "inactive"}, {"compound": "COc1ccc(S(=O)(=O)NC2CC(C)(C)NC(C)(C)C2)cc1C(C)C", "Potency": "inconclusive [inhibitor, partial curve, poor fit]"}, {"compound": "CCCCN(CCCC)C(=S)N/N=C/c1c(C)[nH]n(-c2ccccc2)c1=O", "Potency": "inconclusive [inhibitor, full curve, poor fit]"}, {"compound": "O=C(COc1ccccc1Cl)Nc1ccccc1C(=O)NC1CC1", "Potency": "inconclusive [inhibitor, partial curve, poor fit]"}, {"compound": "COc1ccc(CN2CCc3nc(N4CCN(c5ccc(F)cc5)CC4)ncc3C2)c(OC)c1OC", "Potency": "inactive"}, {"compound": "CC(C)Oc1ccc(CCNC(=O)C2CCC(=O)N(C3CCCCCC3)C2)cc1", "note": "(stereo unspecified)", "Potency": "inconclusive [inhibitor, single point]"}, {"compound": "O=C(/C=C/c1ccc(Cl)cc1Cl)n1cccn1", "Potency": "inactive"}, {"compound": "COc1ccc(Cn2c(CNS(=O)(=O)c3ccc(Cl)s3)nc3cccnc32)cc1", "Potency": "inactive"}, {"compound": "Cc1cccc(Cn2c(CN3CCC(C(=O)NCc4ccccc4Cl)CC3)cc3ccccc32)c1", "Potency": "inconclusive [inhibitor, single point]"}, {"compound": "CC(C)(C)c1nnc(NC(=O)NS(=O)(=O)c2ccccc2)s1", "Potency": "inactive"}, {"compound": "O=C(CN1CCN(S(=O)(=O)c2ccc(Br)cc2)CC1)N/N=C/c1ccncc1", "Potency": "inconclusive [inhibitor, partial curve, poor fit]"}, {"compound": "O=C(OCC(=O)N1CCOCC1)c1ccccc1Cc1ccccc1", "Potency": "inactive"}, {"compound": "COC(=O)c1sc(N2C(=O)c3oc4cc(C)c(C)cc4c(=O)c3C2c2ccccc2F)nc1C", "note": "(stereo unspecified)", "Potency": "inactive"}, {"compound": "O=C1CN(C(=O)COC(=O)CCS(=O)(=O)c2ccccc2Cl)c2ccccc2N1", "Potency": "inconclusive [inhibitor, single point]"}, {"compound": "COc1ccc(OC)c(NC(=O)C2CCN(S(=O)(=O)c3c(C)noc3/C=C/c3ccc(C)cc3)CC2)c1", "Potency": "inactive"}, {"compound": "Cc1cccn2c(=O)c3cc(C(=O)NCCN4CCOCC4)c(=N)n(CCCN4CCOCC4)c3nc12", "Potency": "inconclusive [inhibitor, single point]"}, {"compound": "CC(C)(C)CC(=O)Nc1nc(C(N)Cc2ccc(C(F)(F)F)cc2)cs1", "note": "(stereo unspecified)", "Potency": "inconclusive [inhibitor, single point]"}, {"compound": "Cc1cc(C)c(C)c(S(=O)(=O)N2CCC(C(=O)NCc3ccco3)CC2)c1C", "Potency": "inconclusive [inhibitor, single point]"}, {"compound": "CNC(=O)C1CCC(Cn2c(=O)c3sccc3n(CC(=O)Nc3cc(C)cc(C)c3)c2=O)CC1", "note": "(stereo unspecified)", "Potency": "inactive"}, {"compound": "O=C(/C=C/c1ccc(O)c(O)c1)OCCc1ccccc1", "Potency": "inconclusive [inhibitor, single point]"}, {"compound": "COc1cccc(/C=N/NC(=O)CCCC(=O)Nc2ccc(Br)cc2)c1", "Potency": "inconclusive [inhibitor, partial curve, poor fit]"}]}]}
